Assay results: the RNAGym collection of RNA variant scans (doi:10.7554/elife.90254)
The source gives no read counts; variants with many changes may rest on few reads.

B1: LINE1-full (parent)
chain: UACGUAGGUGGUUUUCCCCUGAUAGUGCUAAGGGGGCCUGGAAGUUUGGACUGGGCAGAGCUCAACACAGCGUGGCAAAGUGGCUGUGGCUAGACUGCCUCUCUGGAUUCCUCGUCACUCAGCAGGGCAUCUCUGAGAGAAAUGCC

Variants of: B1
Assay: self-cleavage, relative activity (ratio to wild type); higher = more cleavage; in vitro, sequencing; the parent is a self-cleaving ribozyme

| Variant | self-cleavage |
| --- | --- |
| UACGUAGGUGGUUUUCCCCUGAUAGUGCUAAGGGGGCCUGGAGGUUUGGACUGGGCAGAGCUCAACACGGCGUGGCAAAGUGGCUGUGGCAAGACUGCCUCUCUGGAUUCCUCGUCACUCAGCAGGGCAUCUCUGAGAGAAAUGCC [A43G A69G U91A] | 0 |
| UACGUAGGUGGUUUUCCCCUGAUAGUGCUAAGGGGGCCUGGAGGUUUGGACUGGGCAGAGCUCAACACAGCGUGGCGAAGUGGCUGUGGCUAGGCUGCCUCUCUGGAUUCCUCGUCACUCAGCAGGGCAUCUCUGAGAGAAAUGCC [A43G A77G A94G] | 1.31 |
| UACGUAGGUGGUUUUCCCCUGAUAGUGCUAAGGGGGCCUGGAGGUUUGGACUGGGCAGAGCUCAACACAGCGUGGCUAAGUGGCUGUGGCUAGACUGCCUUUCUGGAUUCCUCGUCACUCAGCAGGGCUUCUCUGAGAGAAAUGCC [A43G A77U C101U A129U] | 1.17 |
| UACGUAGGUGGUUUUCCCCUGAUAGUGCUAAGGGGGCCUGGAGGUUUGGACUGGGCAGAGCUCAACACAGCGUGGCUAAGUGGCUGAGGCUAGACUGCCUCUCUGGAUUCCUCGUCACUCAGCAGGGCAUCUCUGAGAGAAAUGCC [A43G A77U U87A] | 0.05 |
| UACGUAGGUGGUUUUCCCCUGAUAGUGCUAAGGGGGCCUGGAGGUUUGGACUGGGCAGAGCUCAACACAGCGUGGCAGAGUGGCUGUGGCUAGACUGCCUCUCUGGAUUCCUCGUCACUCAGCAGGGCAUCUCCGAGAGAAAUGCC [A43G A78G U134C] | 1.6 |
| UACGUAGGUGGUUUUCCCCUGAUAGUGCUAAGGGGGCCUGGAGGUUUGGACUGGGCAGAGCUCAACACAGCGUGGCAAGGUGGCUGUGGCUACACUGCCUCUCUGGAUUCCUCGUCACUCAGCAGGGCAUCUCUGAGAGAAAUGCC [A43G A79G G93C] | 0.03 |
| UACGUAGGUGGUUUUCCCCUGAUAGUGCUAAGGGGGCCUGGAGGUUUGGACUGGGCAGAGCUCAACACAGCGUGGCAAGGUGGCUGUGGCCAGACAGCCUCUCUGGAUUCCUCGUCACUCAGCGGGGCAUCUCUGAGAGAAAUGCC [A43G A79G U91C U96A A124G] | 0 |
| UACGUAGGUGGUUUUCCCCUGAUAGUGCUAAGGGGGCCUGGAGGUUUGGACUGGGCAGAGCUCAACACAGCGUGGCAAGGUGGCUGUGGCUAGACUGCCUCUCUGGAUUCCUCGUCACUCAGCAGGGCACCUCUGAGAGAAAUGCC [A43G A79G U130C] | 1.04 |
| UACGUAGGUGGUUUUCCCCUGAUAGUGCUAAGGGGGCCUGGAGGUUUGGACUGGGCAGAGCUCAACACAGCGUGGCAAUGUGGCUGUGGCUAGACUGUCUCUCUGGAUUCCUCGUCACUCAGCAGGGCAUCUCUGAGAGAAGUGCC [A43G A79U C98U A142G] | 0.58 |
| UACGUAGGUGGUUUUCCCCUGAUAGUGCUAAGGGGGCCUGGAGGUUUGGACUGGGCAGAGCUCAACACAGCGUGGCAAUGUGGCUGUGGCUAGACUGCCUCUCUGGAUUCCUCGUCACUCAGCAGGGCAUCUCUGAGAGAAAUGUC [A43G A79U C145U] | 1.15 |
| UACGUAGGUGGUUUUCCCCUGAUAGUGCUAAGGGGGCCUGGAGGUUUGGACUGGGCAGAGCUCAACACAGCGUGGCAAUGAGGCUGUGGCUAGACUGCCUCUCUGGAUUCCUCGUCACUCAGCAGGGCAUCUCUGAGAGGAAUGCC [A43G A79U U81A A140G] | 2.65 |
| UACGUAGGUGGUUUUCCCCUGAUAGUGCUAAGGGGGCCUGGAGGUUUGGACUGGGCAGAGCUCAACACAGCGUGGCAAUGUGGCUGUGGCUAGACAGCCUCUCUGGAUUCCUCGUCACUCAGCAGGGCAUCUCUGAGAGAAAUGCC [A43G A79U U96A] | 0.09 |
| UACGUAGGUGGUUUUCCCCUGAUAGUGCUAAGGGGGCCUGGAGGUUUGGACUGGGCAGAGCUCAACACAGCGUGGCAAAGUGGCUGUGGCUAGUCUGCCUCUCUGGAUUCCUCGUCACUCAGCAGGGCAUCUCUGAGAGGAAUGCC [A43G A94U A140G] | 0.16 |
| UACGUAGGUGGUUUUCCCCUGAUAGUGCUAAGGGGGCCUGGAGGUUUGGACUGGGCAGAGCUCAACACAGCGUGGCAAAGUGGCUGUGGCUAGACUGCCUCUCUGGAUUCCUCGUCGCUCAGCAGGGCAUCCCUGAGAGAAAUGCC [A43G A117G U132C] | 1.23 |
| UACGUAGGUGGUUUUCCCCUGAUAGUGCUAAGGGGGCCUGGAGGUUUGGACUGGGCAGAGCUCAACACAGCGUGGCAAAGUGGCUGUGGCUAGACUGCCUCUCUGGAUUCCUCGUCACUCAGCUGGGCAUCUCUGAGAGGAAUGCC [A43G A124U A140G] | 1.08 |
| UACGUAGGUGGUUUUCCCCUGAUAGUGCUAAGGGGGCCUGGAGGUUUGGAUUGGGCAGAGCUCAACACGGCGUGGCAAAGUGGCUGUGGCUAGACUGCCUCUCUGGAUUCCUCGUCACUCAGCAGGGCAUCUCUGAGAGAAAUGCC [A43G C51U A69G] | 1.23 |
| UACGUAGGUGGUUUUCCCCUGAUAGUGCUAAGGGGGCCUGGAGGUUUGGACUGGGUAGAGCUCAACACAGCGCGGCAAAGUGGCUGUGGCUAGACUGCCUCUCCGGAUUCCUCGUCACUCAGCAGGGCAUCUCUGAGAGAAAUGCC [A43G C56U U73C U104C] | 0.35 |
| UACGUAGGUGGUUUUCCCCUGAUAGUGCUAAGGGGGCCUGGAGGUUUGGACUGGGCAGAGUUCAACACGGCGUGGCAAAGUGGCUGUGGCUAGACUGCCUCUCUGGAUUCCUCGUCACUCAGCAGGGCAUCUCUGAGAGAAAUGCC [A43G C61U A69G] | 0.02 |
| UACGUAGGUGGUUUUCCCCUGAUAGUGCUAAGGGGGCCUGGAGGUUUGGACUGGGCAGAGCUUAACACAGCGUGGCAACGUGGCUGUGGCUAGACUGCCUCUCUGGAUUCCUCGUCACACAGCAGGGCAUCUCUGAGAGAAAUGCC [A43G C63U A79C U119A] | 0.43 |
| UACGUAGGUGGUUUUCCCCUGAUAGUGCUAAGGGGGCCUGGAGGUUUGGACUGGGCAGAGCUCAAUACAGCGCGGCAAAGUGGCUGUGGCUAGUCUGCCUCUCUGGGUUCCUCGUCACUCAGCAGGGCAUCUCUGAGAGAAAUGCC [A43G C66U U73C A94U A107G] | 0.09 |

| Variant | self-cleavage |
| --- | --- |
| UACGUAGGUGGUUUUCCCCUGAUAGUGCUAAGGGGGCCUGGAGGUUUGGACUGGGCAGAGCUCAACACAGCGUGGCAAAGUGGCUGUGGCUAGACUGCCUCUCUGGAUUCCUUGUCACUCAGCAGGGCAUCUCUGGGAGAAAUGCC [A43G C113U A136G] | 1.01 |
| UACGUAGGUGGUUUUCCCCUGAUAGUGCUAAGGGGGCCUGGAGAUUUGGACUGGGCAGAGCUCAACACAGCGUGGCAAAGUGGCUGUGGCUAGACUGCCUCUCUGGAUUCCUCGUCACUCAGCAGGGCAUCUCUGGGAGAAAUGCC [A43G G44A A136G] | 0.52 |
| UACGUAGGUGGUUUUCCCCUGAUAGUGCUAAGGGGGCCUGGAGAUUUGGACUGGGCAGAGCUCAACACAGCGUGGCAAAGUGGCUGUGGCUAGACUGCCUCUCUGGAUUCCUCGACACUCAGCAGGGCAUCUCUGAGAGAAAUGCC [A43G G44A U115A] | 0.97 |
| UACGUAGGUGGUUUUCCCCUGAUAGUGCUAAGGGGGCCUGGAGGUUUAGACUGGGCAGAGCUCAACACAGCGUGGCAAAGAGGCUGUGGCUAGACUGCCUCUCUGGAUUCCUCGUCACUCAGCAGGGCAUCUCUGAGAGGAAUGCC [A43G G48A U81A A140G] | 1.36 |
| UACGUAGGUGGUUUUCCCCUGAUAGUGCUAAGGGGGCCUGGAGGUUUGUACUGGGCAGAGCUCAACGCAGCGUGGCAAAGUGGCUGUGGCUAGACUGCCUCUCUGGAUUCCUCGUCACUCAGCAGGGCAUCUCUGAGAGAAAUGCC [A43G G49U A67G] | 0.1 |
| UACGUAGGUGGUUUUCCCCUGAUAGUGCUAAGGGGGCCUGGAGGUUUGGACUAGGCAGAGCUCAACGCAGCGUGGCAAAGUGGCUGUGGCUAGACUGCCUCUCUGGGUUCCUCGUCACCCAGCAGGGCAUCCCUGAGAGAAAUGCC [A43G G53A A67G A107G U119C U132C] | 0 |
| UACGUAGGUGGUUUUCCCCUGAUAGUGCUAAGGGGGCCUGGAGGUUUGGACUAGGCAGAGCUCAACACAGCGUGGCAAAGUGGCUGUGGCUAGACUGCCUCUCUGGAUUCCUCGUCACUCAGCAGGGCAUCCCUGAGAGAAAUGCC [A43G G53A U132C] | 1.11 |
| UACGUAGGUGGUUUUCCCCUGAUAGUGCUAAGGGGGCCUGGAGGUUUGGACUGGGCAGAGCUCAACACAUCGUGGCAAAGUGGCUGUGGCUAGACUGCCUCUCUGGAUUCCUCAUCACUCAGCAGGGCAUCUCUGAGAGAAAUGCC [A43G G70U G114A] | 0.02 |
| UACGUAGGUGGUUUUCCCCUGAUAGUGCUAAGGGGGCCUGGAGGUUUGGACUGGGCAGAGCUCAACACAGCGUGUCAAAGUGGCUGUGGCUAGGCUGCCCCUCUGGAUUCCUCGUCACUCAGCAGGGCAUCUCUGAGAGAAAUGCC [A43G G75U A94G U100C] | 0.14 |
| UACGUAGGUGGUUUUCCCCUGAUAGUGCUAAGGGGGCCUGGAGGUUUGGACUGGGCAGAGCUCAACACAGCGUGGCAAAGUGCCUGUGGCUAGACUGCCUCUCUGGAUUCCUCGUCACUCAGCAGGGCAUCUCUGUGAGAAAUGCC [A43G G83C A136U] | 0.89 |
| UACGUAGGUGGUUUUCCCCUGAUAGUGCUAAGGGGGCCUGGAGGUUUGGACUGGGCAGAGCUCAACACAGCGUGGCAAAGUGGCUCUGGCUAGACUGCCUCUCUGGAUUCCUCGUCACUCAGCAGGGCAUCUCUGGGAGAAAUGCC [A43G G86C A136G] | 0 |
| UACGUAGGUGGUUUUCCCCUGAUAGUGCUAAGGGGGCCUGGAGGUUUGGACUGGGCAGAGCUCAACACAGCGUGGCAAAGUGGCUGUAGCUAGACUGCCUCUCUGGAUUCCUCGUCACUCAGCAGGGCAUCUCUGAGAGUAAUGCC [A43G G88A A140U] | 0.01 |
| UACGUAGGUGGUUUUCCCCUGAUAGUGCUAAGGGGGCCUGGAGGUUUGGACUGGGCAGAGCUCAACACAGCGUGGCAAAGUGGCUGUGGCUAGACUACCUCUCUGGAUUCCCCGUCACUCAGCAGGGCAUCUCUGAGAGAAAUGCC [A43G G97A U112C] | 0.12 |
| UACGUAGGUGGUUUUCCCCUGAUAGUGCUAAGGGGGCCUGGAGGAUUGGACUGGGCAGGGCUCAACACAGCGUGGCAAAGUGGCUGUGGCUAGACUGCCUCUCUGGAUUCCUCGUCACUCAGCAGGGCAUCUCUGAGAGAAAUGCC [A43G U45A A59G] | 0.1 |
| UACGUAGGUGGUUUUCCCCUGAUAGUGCUAAGGGGGCCUGGAGGAUUGGACUGGGCAGAGCUCAACACGGCGUGGCAAAGUGGCUGUGGCUAGACUGCCUCUCUGGAUUCCUCGUCGCUCAGCAGGGCAUCUCCGAGAGAAAUGCC [A43G U45A A69G A117G U134C] | 0 |
| UACGUAGGUGGUUUUCCCCUGAUAGUGCUAAGGGGGCCUGGAGGCUUGGGCUGGGCAGAGCUCAACACAGCGUGGCAAAGUGGCUGUGGCUAGACUGCCUCUCUGGAUUCCUCGUCACUCAGCAGGGCAUCUCUGAGAGAAAUGCC [A43G U45C A50G] | 0.77 |
| UACGUAGGUGGUUUUCCCCUGAUAGUGCUAAGGGGGCCUGGAGGCUUGGACUGGGCAGAGCUCAACUCAGCGUGGCAAAGUGGCUGUGGCUAGACUGCCUCUCUGGAAUCCUCGUCACUCAGCAGGGCAUCUCUGAGAGAAAUGCC [A43G U45C A67U U108A] | 0.27 |
| UACGUAGGUGGUUUUCCCCUGAUAGUGCUAAGGGGGCCUGGAGGCUUGGACUGGGUAGAGCUCAACACAGCGUGGCAAAGUGGCUGUGGCUAGACCGCCUCUCUGGAUUCCUCGUCACUCAGCAGGGCAUCUCUGAGAGAAAUGCC [A43G U45C C56U U96C] | 0.06 |
| UACGUAGGUGGUUUUCCCCUGAUAGUGCUAAGGGGGCCUGGAGGCUUGGACUGGGCAGAGAUCAACACAGCGUGGCAAAGUGGCUGUGGCUAGACUGCCUCUCUGGAUUCCUCGUCACUCAGCAGGGCAUCUCUGAGAGAAAUGCC [A43G U45C C61A] | 0.06 |
